# Reference: PubChem BioAssay (NCI)
# “And” between values parts separate entries of the source, which are not always exact repeats. Equal values may be shown once.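 All cell lines were grown in 96-well plates and treated with compound for 48 hours. The concentration for 50% growth inhibition is given as GI50. TGI is the concentration that stops growth completely.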
# Test system: NCI-H322M lung
# Experiment: NCI tumour cell line growth inhibition, 48 h
Structure (SMILES),TGI,GI50
O=C1Nc2ccccc2C1S(=O)(=O)c1ccccc1 (centres undefined),> 100 µM,
CC1(CCCCO)C=CC(S(=O)(=O)c2ccccc2)CC1 (centres undefined),20.1 µM,
CC(C)(C)c1cc(C(OCCl)(C(F)(F)F)C(F)(F)F)c2c(c1)C(C(F)(F)F)(C(F)(F)F)OC21c2ccccc2C(=O)c2ccccc21,> 100 µM,
CC1=NNC(=O)[C@H]2[C@H]1CCC1[C@@H]2CC[C@]2(C)[C@@H](O)CC[C@@H]12 (some centres undefined),> 100 µM,
CSc1nc(C)cc(=O)n1C1OC(COC(C)=O)C(OC(C)=O)C(OC(C)=O)C1OC(C)=O (centres undefined),> 100 µM,
O=c1[nH]c(=S)[nH]c2c(C3OC(CO)C(O)C3O)nsc12 (centres undefined),> 100 µM,
CN1CC[C@]23c4c5ccc(O)c4OC2c2[nH]ncc2C[C@H]3[C@H]1C5 (some centres undefined),> 100 µM,
CC1=NN(c2nc(N)nc(/C=C\c3ccccc3)n2)C(C)(C)C1,25.5 µM,11.1 µM
N=C(N)c1ccc(OCCCCCOc2ccc(C(=N)N)cc2)cc1,> 50 µM and 56 µM and > 100 µM,12.8 µM and 18.6 µM and 46.7 µM
CN(C)c1ccc2c(c1)OC(N)=C(C#N)C2c1ccc2c(c1)CCCN2C (centres undefined),> 100 µM,28.1 µM
Cc1ccc(NC(=O)c2ccc(NC3=C(Cl)C(=O)N(Cc4ccccc4)C3=O)cc2)cc1Cl,> 100 µM,19.3 µM
COc1cccc(N2C(=O)C3CC(CC(C)(C)C)c4c([nH]c5ccccc45)C3C2=O)c1 (centres undefined),> 10 µM,
O=[N+]([O-])c1ccc(/C=C\c2ccc3c(c2)OCO3)c([N+](=O)[O-])c1,41.6 µM,
COc1cc(OC)c(/C=C/C(=O)c2c(N)cc(OC)cc2OC)c(OC)c1,> 100 µM,10.1 µM
COc1cccc(/C=C2/S/C(=N/Nc3nc(C)c(C(C)=O)s3)NC2=O)c1O,> 100 µM,
Clc1cccc2[nH]ncc12,> 100 µM,
COc1ccc2c3c(c(C(=O)O)oc13)C(CCC(=O)O)CC2 (centres undefined),> 100 µM,
Brc1ccc(-c2nc(-c3ccc(Br)cc3)n(-c3ccccc3)n2)cc1,> 100 µM,
O=C(/C=C/c1cccc(Oc2ccc(Cl)cc2)c1)c1ccccc1,263 µM,115 µM
CN(CCCNC(=O)c1c2ccc3ccccc3c2nn1C)CCCNC(=O)c1c2ccc3ccccc3c2nn1C,26 µM,
Cc1cc(C)nc(NC(=S)Nc2ccc(Cl)cc2)c1,> 100 µM,
CCN(CC)C(=O)CCCCCn1c2ccccc2c2c3c(c4c5ccccc5[nH]c4c21)C(=O)N(O)C3=O,> 100 µM,19.3 µM
O=c1c2ccccc2n2cnc3ccc(NCCNCCO)c1c32,5.41 µM,
Cc1n(Cc2ccc3ccccc3n2)cc[n+]1Cc1ccc2ccccc2c1,14.9 µM,2.96 µM

Structure (SMILES),TGI,GI50
N/C(=N\N=C/c1cc([N+](=O)[O-])cc([N+](=O)[O-])c1O)NO,> 100 µM,
Nc1n[nH]c2ccc([C@@H]3Nc4c(F)cc5[nH]ncc5c4[C@H]4C5CCC(C5)[C@@H]34)cc12 (some centres undefined),> 58.3 µM,0.671 µM
O=S(=O)(/N=C(\NO)Nc1ccc(Cl)cc1)c1cc(S(=O)(=O)c2ccccc2)cs1,41.5 µM,
O=S(=O)(NCCCNc1nccc(-c2c(-c3cccc(F)c3)nc3occn23)n1)c1cccc2ccccc12,> 100 µM,> 100 µM
CC(=O)Nc1sccc1S(=O)(=O)c1ccc(Cl)cc1,> 100 µM,
CCOc1ccc(/C=C2/C(=O)N=C(N)N=C2N)cc1OCC,> 100 µM,
CCOC(=O)C1=C(C)N(CC(C)C)C2(O)C(OC)CC(=O)C3C(=O)N(c4ccccc4)C(=O)C132 (centres undefined),> 100 µM,
COc1cc2c3c(n(CCCN4CCSCC4)c(=O)c2cc1OC)-c1cc2c(cc1C3=O)OCO2,> 100 µM,> 100 µM
CN1CCOCCOCCOc2ccccc2NC(=O)c2nc(cnc2N)-c2ccc(cc2)S1(=O)=O,> 100 µM,3.69 µM
Cc1ccc(NC2=CC(=O)C(=O)c3ccccc32)c(C)c1,4.22 µM,2.11 µM
Cc1ccc(C(=O)N2C/C(=C/c3ccccc3)C(=O)/C(=C/c3ccccc3)C2)cc1,> 100 µM,> 100 µM
CN(C)CCNC(=O)c1cccc2cc3ccc4ccccc4c3nc12,1.27 µM,
CCOC(=O)COc1cccc2occc(=O)c12,> 100 µM,
CCN1C(=O)N2C(OC)c3ccccc3C(Br)C2(OC)C1=O (centres undefined),> 100 µM,
OC1CSCCSCCCSCCSC1,> 100 µM,
COC(=O)C1=Nc2ccc(F)cc2/C1=C/c1sc(=S)[nH]c1O,> 75.6 µM,0.445 µM
CCN(CC)CCCNc1c2ccc(Cl)cc2nc2ccc(OC)cc12,3.65 µM,0.0602 µM
CCOc1cc2c(cc1O)CC[C@@H]1[C@@H]2CC[C@]2(C)[C@@H](O)CC[C@@H]12,58.4 µM,
CCCCCC(/C=C/[C@@H]1[C@@H](C(O)CCCCCC(=O)OC)C(=O)C[C@H]1O[Si](C)(C)C(C)(C)C)OCOCCOC (some centres undefined),46.5 µM,
N#C[C@H](C(=O)c1ccccc1F)c1nc2ccccc2[nH]1,> 100 µM,
O=C1c2ccccc2-n2c1nc1ccc(Cl)cc1c2=O,> 100 µM,
CCN(CC)C(=S)S,> 100 µM,
Nc1ccn([C@@H]2S[C@H](CO)[C@@H](O)[C@@H]2F)c(=O)n1,> 100 µM,1.02 µM
